Experimental data: the supplement of paper PMC4604168 (melanoma cell lines)
This is one part of the list. Single values are uncertain, as repeats are few or missing.

Legend:
Experiment in all cases: cell count relative to DMSO control; melanoma cells; higher = more viable cells
Settings in all cases: library dose: standard library concentration; 72 h
G361 = test system: G361
IPC-298 = test system: IPC-298
IST-MEL1 = test system: IST-MEL1
LB2518-MEL = test system: LB2518-MEL
LOXIMVI = test system: LOXIMVI
MEL-HO = test system: MEL-HO
MZ2-MEL = test system: MZ2-MEL
MeWo = test system: MeWo
RPMI7951 = test system: RPMI7951
RVH-421 = test system: RVH-421
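Note: cells treated in 1,536-well plates, then fixed and DAPI-stained, with nuclei counted from automated high-throughput microscope images.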

| SMILES | cell count (G361) | cell count (IPC-298) | cell count (IST-MEL1) | cell count (LB2518-MEL) | cell count (LOXIMVI) | cell count (MEL-HO) | cell count (MZ2-MEL) | cell count (MeWo) | cell count (RPMI7951) | cell count (RVH-421) |
| --- | --- | --- | --- | --- | --- | --- | --- | --- | --- | --- |
| CS(=O)(=O)c1ccc(C(=O)Nc2ccc(Cl)c(-c3ccccn3)c2)c(Cl)c1 [vismodegib] + Cc1cc(N2CCOCC2)cc2[nH]c(-c3c(NC[C@@H](O)c4cccc(Cl)c4)cc[nH]c3=O)nc12 [BMS536924] (first compound 5 µM, partner dose 1 µM) | 91.2% | 101% | 87.7% | 95.2% | 76.5% | 86.6% | 129% | 73.5% | 109% | 81.9% |
| CN(c1ncccc1CNc1nc(Nc2ccc3c(c2)CC(=O)N3)ncc1C(F)(F)F)S(C)(=O)=O + O=C(Nc1cccc(Cl)c1)Nc1ncc(CCNc2ncnc3ccsc23)s1 [SNS314] (first compound 0.4 µM, partner dose 0.004 µM) | 57.9% | 79.8% | 60.6% | 81.7% | 65.7% | 71.7% | 80.4% | 71.6% | 55.8% | 66.7% |
| C=C(c1ccc(C(=O)O)cc1)c1cc2c(cc1C)C(C)(C)CCC2(C)C [Bexarotene] + Cn1cncc1[C@@](N)(c1ccc(Cl)cc1)c1ccc2c(c1)c(-c1cccc(Cl)c1)cc(=O)n2C [tipifarnib] (first compound 10 µM, partner dose 0.05 µM) | 85.1% | 93.9% | 77.7% | 86.3% | 102% | 100% | 120% | 88.6% | 77.8% | 78.3% |
| NC1(c2ccc(-c3nc4ccn5c(=O)[nH]nc5c4cc3-c3ccccc3)cc2)CCC1 + COc1cc2ncnc(Nc3ccc(Oc4ccccc4)cc3)c2cc1OC [SrcI1] (first compound 2 µM, partner dose 10 µM) | 14.9% | 69.3% | 42.2% | 73.2% | 78.1% | 55% | 49.5% | 52% | 6.34% | 64% |
| CCCS(=O)(=O)Nc1ccc(F)c(C(=O)c2c[nH]c3ncc(Cl)cc23)c1F + Cn1nnc2c(C(N)=O)ncn2c1=O [temozolomide] (first compound 0.4 µM, partner dose 10 µM) | 65.7% | 65.7% | 89.8% | 94.2% | 76% | 85.6% | 79% | 89.9% | 131% | 65.2% |
| C=C(c1ccc(C(=O)O)cc1)c1cc2c(cc1C)C(C)(C)CCC2(C)C [Bexarotene] + COc1cc2ncnc(Nc3ccc(Oc4ccccc4)cc3)c2cc1OC [SrcI1] (first compound 10 µM, partner dose 10 µM) | 23.6% | 58.3% | 69.5% | 104% | 64.2% | 72.1% | 65.5% | 79.3% | 11.9% | 91.5% |
| C=C(c1ccc(C(=O)O)cc1)c1cc2c(cc1C)C(C)(C)CCC2(C)C [Bexarotene] + CC(=O)c1c(C)c2cnc(Nc3ccc(N4CCNCC4)cn3)nc2n(C2CCCC2)c1=O [palbociclib] (first compound 10 µM, partner dose 0.2 µM) | 57.8% | 59.1% | 66.9% | 59.8% | 50.3% | 70.6% | 70.9% | 47.5% | 59.1% | 54.7% |
| CS(=O)(=O)c1ccc(C(=O)Nc2ccc(Cl)c(-c3ccccn3)c2)c(Cl)c1 [vismodegib] + C[C@@H]1CCN(C(=O)CC#N)C[C@@H]1N(C)c1ncnc2[nH]ccc12 [CP690550] (first compound 5 µM, partner dose 5 µM) | 94.2% | 104% | 103% | 105% | 95.6% | 98.6% | 126% | 87.3% | 88.9% | 93.2% |
| CN(c1ncccc1CNc1nc(Nc2ccc3c(c2)CC(=O)N3)ncc1C(F)(F)F)S(C)(=O)=O + CCCCCCCCCCCC1=C(O)C(=O)C=C(O)C1=O [Embelin] (first compound 0.4 µM, partner dose 6 µM) | 71.1% | 64.9% | 66.1% | 62.2% | 83.8% | 66.3% | 77% | 89.1% | 67.4% | 73.3% |
| CN(c1ncccc1CNc1nc(Nc2ccc3c(c2)CC(=O)N3)ncc1C(F)(F)F)S(C)(=O)=O + Cc1cc([N+](=O)[O-])ccc1NS(=O)(=O)c1cc(Cl)ccc1Cl [FH535] (first compound 0.4 µM, partner dose 5 µM) | 50.8% | 52.8% | 49.9% | 67.1% | 63.2% | 42.9% | 59.1% | 75.2% | 67.6% | 55.3% |
| CS(=O)(=O)c1ccc(C(=O)Nc2ccc(Cl)c(-c3ccccn3)c2)c(Cl)c1 [vismodegib] + CCCCCCCCc1ccc(CCC(N)(CO)CO)cc1 [fingolimod] (first compound 5 µM, partner dose 10 µM) | 0.673% | 5.02% | 4.17% | 0.223% | 16% | 1.01% | 0.711% | 6.26% | 1.38% | 4.83% |
| CS(=O)(=O)c1ccc(C(=O)Nc2ccc(Cl)c(-c3ccccn3)c2)c(Cl)c1 [vismodegib] + C=C(c1ccc(C(=O)O)cc1)c1cc2c(cc1C)C(C)(C)CCC2(C)C [Bexarotene] (first compound 5 µM, partner dose 10 µM) | 63.1% | 69% | 78.5% | 87.9% | 94% | 76.5% | 64.2% | 75.2% | 61.8% | 111% |
| CN(c1ncccc1CNc1nc(Nc2ccc3c(c2)CC(=O)N3)ncc1C(F)(F)F)S(C)(=O)=O + OCCn1cc(-c2cnc3nnn(Cc4ccc5ncccc5c4)c3n2)cn1 [PF04217903] (first compound 0.4 µM, partner dose 5 µM) | 78.5% | 87.9% | 71.5% | 84% | 74.7% | 90.8% | 94.1% | 79.7% | 44.3% | 84.1% |
| CS(=O)(=O)c1ccc(C(=O)Nc2ccc(Cl)c(-c3ccccn3)c2)c(Cl)c1 [vismodegib] + CC(C)C[C@H](NC(=O)[C@H](Cc1ccccc1)NC(=O)c1cnccn1)B(O)O [Bortezomib] (first compound 5 µM, partner dose 0.005 µM) | 0.897% | 6.15% | 6.71% | 2.12% | 14.3% | 24.2% | 1.62% | 19.5% | 3.88% | 9.15% |
| CN(c1ncccc1CNc1nc(Nc2ccc3c(c2)CC(=O)N3)ncc1C(F)(F)F)S(C)(=O)=O + CO[C@@H]1[C@H](N(C)C(=O)c2ccccc2)C[C@H]2O[C@]1(C)n1c3ccccc3c3c4c(c5c6ccccc6n2c5c31)C(=O)NC4 [Midostaurin] (first compound 0.4 µM, partner dose 0.4 µM) | 43.7% | 68.1% | 58% | – | 51.4% | 96.3% | – | 70.1% | 39.5% | 56.8% |
| CS(=O)(=O)c1ccc(C(=O)Nc2ccc(Cl)c(-c3ccccn3)c2)c(Cl)c1 [vismodegib] + CCCS(=O)(=O)Nc1ccc(F)c(C(=O)c2c[nH]c3ncc(Cl)cc23)c1F [PLX4720] (first compound 5 µM, partner dose 0.4 µM) | 66.4% | 63.6% | 90.3% | – | 73.1% | 88.8% | – | 113% | 108% | 83.9% |
| CCCS(=O)(=O)Nc1ccc(F)c(C(=O)c2c[nH]c3ncc(Cl)cc23)c1F + Cc1cc(N2CCOCC2)cc2[nH]c(-c3c(NC[C@@H](O)c4cccc(Cl)c4)cc[nH]c3=O)nc12 [BMS536924] (first compound 0.4 µM, partner dose 1 µM) | 53.6% | 84.1% | 90% | – | 70.5% | 87.4% | – | 71.8% | 75.6% | 69.6% |
| NC1(c2ccc(-c3nc4ccn5c(=O)[nH]nc5c4cc3-c3ccccc3)cc2)CCC1 + CN(NC(=O)CC(=O)NN(C)C(=S)c1ccccc1)C(=S)c1ccccc1 [STA4783] (first compound 2 µM, partner dose 0.03 µM) | 46.6% | 72.4% | 40.5% | 22.8% | 49.3% | 66.5% | 97.9% | 17.6% | 87.1% | 50.7% |
| CCCS(=O)(=O)Nc1ccc(F)c(C(=O)c2c[nH]c3ncc(Cl)cc23)c1F + COCC[n+]1c2c(n(Cc3cnccn3)c1C)C(=O)c1ccccc1C2=O [YM155] (first compound 0.4 µM, partner dose 0.002 µM) | 61.7% | 48.7% | 39.4% | 25.7% | 44.8% | 70.1% | 16.3% | 42.6% | 36.2% | 29.6% |
| CS(=O)(=O)c1ccc(C(=O)Nc2ccc(Cl)c(-c3ccccn3)c2)c(Cl)c1 [vismodegib] + CN(NC(=O)CC(=O)NN(C)C(=S)c1ccccc1)C(=S)c1ccccc1 [STA4783] (first compound 5 µM, partner dose 0.03 µM) | 32.7% | 86.9% | 52.2% | – | 75.7% | 94.4% | – | 10.9% | 112% | 66% |
| NC1(c2ccc(-c3nc4ccn5c(=O)[nH]nc5c4cc3-c3ccccc3)cc2)CCC1 + Cc1cc(N2CCOCC2)cc2[nH]c(-c3c(NC[C@@H](O)c4cccc(Cl)c4)cc[nH]c3=O)nc12 [BMS536924] (first compound 2 µM, partner dose 1 µM) | 65% | 97.5% | 89.3% | – | 64.4% | 66.5% | – | 79.5% | 61.7% | 69.3% |
| CS(=O)(=O)c1ccc(C(=O)Nc2ccc(Cl)c(-c3ccccn3)c2)c(Cl)c1 [vismodegib] + Cc1ccc(NC(=O)c2cccc(N(C)C)c2)cc1NC(=O)c1ccc(O)cc1 [ZM336372] (first compound 5 µM, partner dose 10 µM) | 121% | 114% | 107% | 115% | 136% | 109% | 129% | 92.2% | 111% | 112% |
| CCCS(=O)(=O)Nc1ccc(F)c(C(=O)c2c[nH]c3ncc(Cl)cc23)c1F + CC1(C)NC(=O)N(c2ccc([N+](=O)[O-])c(C(F)(F)F)c2)C1=O [nilutamide] (first compound 0.4 µM, partner dose 5 µM) | 62.8% | 94.2% | 83.8% | 84% | 91.5% | 97.3% | 94.1% | 108% | 156% | 109% |
